Laboratory results: US20080280833A1 (published 2008)

Target: T1, purified human αvβ3 integrin (Chemicon) (human, UniProt P06756 31-1048; P05106 27-788)
T1 construct: also called integrin αvβ3; recombinant αvβ3
Experiment: cell-free pull-down: 125I-suPAR + purified αvβ3 with or without uPA (4 µg), immunoprecipitation with LM609, densitometry

T1 sequence (P06756 31-1048, form in doubt, chain 1 of 2): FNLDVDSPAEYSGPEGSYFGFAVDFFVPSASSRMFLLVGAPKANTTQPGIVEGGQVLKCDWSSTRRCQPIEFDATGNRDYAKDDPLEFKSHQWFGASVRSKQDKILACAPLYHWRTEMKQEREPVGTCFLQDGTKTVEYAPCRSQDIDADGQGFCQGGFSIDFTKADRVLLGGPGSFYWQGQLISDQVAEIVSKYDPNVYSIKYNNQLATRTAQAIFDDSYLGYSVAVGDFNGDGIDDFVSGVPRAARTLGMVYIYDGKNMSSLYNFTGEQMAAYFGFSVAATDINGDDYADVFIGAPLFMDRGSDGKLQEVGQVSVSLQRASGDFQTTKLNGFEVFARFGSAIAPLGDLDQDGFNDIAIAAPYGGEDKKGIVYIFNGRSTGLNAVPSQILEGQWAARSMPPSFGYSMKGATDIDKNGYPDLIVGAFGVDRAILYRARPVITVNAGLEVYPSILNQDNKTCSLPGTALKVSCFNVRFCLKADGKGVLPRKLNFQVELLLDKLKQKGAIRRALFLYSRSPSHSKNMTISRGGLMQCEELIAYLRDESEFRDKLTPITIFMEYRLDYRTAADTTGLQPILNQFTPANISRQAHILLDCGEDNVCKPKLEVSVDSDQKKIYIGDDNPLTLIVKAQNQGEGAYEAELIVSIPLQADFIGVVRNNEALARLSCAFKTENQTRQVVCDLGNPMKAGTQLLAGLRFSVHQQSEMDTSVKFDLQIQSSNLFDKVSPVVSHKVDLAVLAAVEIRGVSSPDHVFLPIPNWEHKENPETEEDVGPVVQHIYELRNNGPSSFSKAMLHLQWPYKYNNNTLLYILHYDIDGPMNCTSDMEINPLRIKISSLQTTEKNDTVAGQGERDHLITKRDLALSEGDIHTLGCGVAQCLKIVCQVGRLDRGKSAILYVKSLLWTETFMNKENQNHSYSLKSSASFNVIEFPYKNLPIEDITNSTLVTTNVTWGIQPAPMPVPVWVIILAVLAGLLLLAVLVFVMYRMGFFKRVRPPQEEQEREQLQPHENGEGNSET
T1 sequence (P05106 27-788, form in doubt, chain 2 of 2, further chain): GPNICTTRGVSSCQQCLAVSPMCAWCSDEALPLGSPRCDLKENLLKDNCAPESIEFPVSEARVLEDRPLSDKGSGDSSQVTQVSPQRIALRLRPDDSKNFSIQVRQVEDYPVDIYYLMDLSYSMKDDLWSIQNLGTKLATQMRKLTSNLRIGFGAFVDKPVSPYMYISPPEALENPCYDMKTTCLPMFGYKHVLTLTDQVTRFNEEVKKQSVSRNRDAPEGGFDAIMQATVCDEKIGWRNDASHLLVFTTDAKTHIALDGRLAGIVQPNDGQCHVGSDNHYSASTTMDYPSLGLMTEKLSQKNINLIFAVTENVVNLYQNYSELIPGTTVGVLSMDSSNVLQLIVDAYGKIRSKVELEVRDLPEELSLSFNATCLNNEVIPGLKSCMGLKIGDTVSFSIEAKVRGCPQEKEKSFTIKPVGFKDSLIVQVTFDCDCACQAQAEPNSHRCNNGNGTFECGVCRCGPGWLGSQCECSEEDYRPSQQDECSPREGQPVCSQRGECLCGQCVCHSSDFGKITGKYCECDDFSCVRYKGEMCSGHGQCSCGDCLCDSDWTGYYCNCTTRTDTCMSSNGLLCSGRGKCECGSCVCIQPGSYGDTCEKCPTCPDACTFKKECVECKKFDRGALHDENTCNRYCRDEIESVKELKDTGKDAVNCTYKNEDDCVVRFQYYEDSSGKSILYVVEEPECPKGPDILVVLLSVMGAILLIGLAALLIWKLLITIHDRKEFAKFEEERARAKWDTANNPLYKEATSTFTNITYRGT

B1: soluble human uPAR (suPAR) (receptor)
chain: not shown
modifications: radioiodinated (125I)
notes: the whole natural entry is named; also called 125I-suPAR; 125I-soluble uPAR
  fold increase in coimmunoprecipitated suPAR on addition of uPA: ~10 fold
